The RNAGym collection of RNA variant scans (doi:10.1073/pnas.2313332121)
This sample is rich in variants without activity.

B1: TPR 5TU (parent)
chain: GGAUCUUCUCGAUCUAACAAAAAAGACAAAUCUGCCACAAAGCUUGAGAGCAUCUUCGGAUGCAGAGGCGGCAGCCUUCGGUGGCGCGAUAGCGCCAACGUUCUCAACUAUGACACGCAAAACGCGUGCUCCGUUGAAUGGAGUUUAUCAUG

Variants of: B1
Experiment: polymerase ribozyme fitness, log enrichment relative to wild type (log ratio); higher = more active; in vitro selection for triplet polymerase activity
In short: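 The heterodimeric triplet polymerase ribozyme's subunits were each mutagenized into PCR-built libraries and transcribed. Every library was selected once, in triplicate, by annealing with a biotinylated primer, the partner subunit and triplets, incubating frozen at −7 °C, gel-excising extended constructs, capturing on streptavidin beads and running RT-PCR. Input and output libraries were Illumina-sequenced, with genotypes kept only at ≥10 input reads and ≥1 read per output. Fitness, from inverse-variance-weighted replicate averages, is the base-2 logarithm of genotype enrichment over wild-type enrichment.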

Variant	polymerase ribozyme fitness (log ratio)
GGAUCUUCUCGAUCUAACAAAAAAGACAAAUCUGCCACGAAGCUUGAGAGCAUCUUCUGAUGCAGAGGCGGCAGCCUUUGGUGGCGCGAUAGCGCCAACGUUCUCAACUAUGACACGCAAAACGCGGGCUCCCUUGAAUGGAGUUUAUCAUG [A39G G58U C79U U127G G133C]	≤ -4.2
GGAUCUUCUCGAUCUAACAAAAAAGACAAAUCUGCCACGAAGCUUGAGAGCAUCUUCGGAUGCAGAGGCGGCAGCCUUCGGUGUCGCGAUAGCGCCAACGUUCUCAACUAUGACACGCAAAACGCGAGCUCCGUUGAAUGGAGUUUAUCAUG [A39G G84U U127A]	≤ -4.2
GGAUCUUCUCGAUCUAACAAAAAAGACAAAUCUGCCACGAAGCUUGAGAGCAUCCACGGAUGCAGAGGCGGCAGCCUUCGGUGGCGCGAUAGCGCCAACGUUCUCAACUAUGACAUGCAAAACGCGUGCUCCGUUGAAGGGAGGUUAUCAUG [A39G U55C U56A C116U U139G U144G]	-2.27
GGAUCUUCUCGAUCUAACAAAAAAGACAAAUCUGCCACGAAACUUGAGCGCAUCUUCGGAUGCAGAGGCGGCAGCCUUCGGUGGCGCGAUAGCGCCAAAGUUCUCAACUUUGACACGCAAAACGCGUGCUCCUUUGAAUGGAGUUUAUCAUG [A39G G42A A49C C99A A110U G133U]	≤ -4.2
GGAUCUUCUCGAUCUAACAAAAAAGACAAAUCUGCCACGAAGCUUGAGAGCAUCGUCGGAGGCAGAGGCGGCAGCCUUCGGUGGCGCGAUUGCGCGAACGUUCUCAACUAUGACACGCAAAACGCGUGCUCCGGUCAAUGGAGUUUAUCAUG [A39G U55G U61G A91U C96G U134G G136C]	≤ -4.2
GGAUCUUCUCGAUCUAACAAAAAAGACAAAUCUGCCACGAAGCUUGAGAGCAUCUUCGUAUGCAGAGGCGGCAGCCUUCGGUGGCGCGAUAGCGCCAACGUUCUCAACUAUGAGACGCAAAACGCGUGCUCCGUUGAAUGGAGUUCAACAUG [A39G G59U C114G U146C U148A]	≤ -4.2
GGAUCUUCUCGAUCUAACAAAAAAGACAAAUCUGCCACGAAGCAUGAGAGCAUCUUCGGAUGCAGAGGCGGCAGCCUUCGGUGUCGCGAUAGCGCCAACCUUCUCAACUAUGACACUCAAAACGCGUGCUCCGUUGAAUGGAGUUUAUCAUG [A39G U44A G84U G100C G117U]	≤ -4.2
GGAUCUUCUCGAUCUAACAAAAAAGACAAAUCUGCCACGAAGCUUGAGAGCAACUUCGGAUGCAGAGGCGGCAGCCUUCGGUGGGGCGAUAGCGCCAACGUUCUCUACUAUGACACGCAAAACGCGUGCUCCGUUGAAUGGAGCUUAUCAUG [A39G U53A C85G A106U U144C]	≤ -4.2
GGAUCUUCUCGAUCUAACAAAAAAGACAAAUCUGCCACGAAGCUUGAAAGCAUCUACGGAUGCAGAGGCGGCAGCAUUUGGUGGCGCGAUAGCGCCAACGUUCUUAACUAUGACACGCAAAACGCGUGCUCCGUUGAAUGGAGUUUAUCAUG [A39G G48A U56A C76A C79U C105U]	≤ -4.2
GGAUCUUCUCGAUCUAACAAAAAAGACAAAUCUGCCACGAACCUUGAGAGCAUCUUCGGAUGCUGAGGCGGCAGCCUUCGGUGCUGCGAUAGCGCCAACGUUGUCAAUUAUGACACCCAAAACGCGUGCUCCGUUGAAUGGAGUUUGUCAUG [A39G G42C A64U G84C C85U C103G C108U G117C A147G]	≤ -4.2
GGAUCUUCUCGAUCUAACAAAAAAGACAAAUCUGCCACGAACCUUGAGAGCAUCUUCGGAUGCAGAGGCGGCAGCCUUCGGUGACGCGAUAGCGUCAACGUUCUCAACUAUGACACGCAAAACGCGUGCUCCGUUGAAUGGAGUUUAUCAUG [A39G G42C G84A C95U]	≤ -4.2
GGAUCUUCUCGAUCUAACAAAAAAGACAAAUCUGCCACGAAGCUUGAGAGCAUCUUCGGAUGCAGAGGCGGCAGCCUUCGGUGGCGCGAUAGCACCAAUGUUCUCCACUAUGACACGCAAAACGCGUACUCCGUUGAAUGGAGUUUAUCAUG [A39G G94A C99U A106C G128A]	≤ -4.2
GGAUCUUCUCGAUCUAACAAAAAAGACAAAUCUGCCACGAAGCUUGAGAGCAUCUUCGGAUGCAGAGGCGGCAGCCUUCGGUGGCGCGAUAGCGCCAACGUUGUCAACUAUGACACGCAAAACGCGUGCUCCGUUGAAUGGAGAUUAUCAUG [A39G C103G U144A]	≤ -4.2
GGAUCUUCUCGAUCUAACAAAAAAGACAAAUCUGCCACGAAGCUUGAGAGCAUCAUCGGAUGCAGAGGCGGCAGGCUUCGGUGGCGUGUUAGCGCCAAUGUUCUCAACUAUGACAUGCAAAACGCGUGCUCCGUUGAAUGGUGUUUAUCAUG [A39G U55A C75G C87U A89U C99U C116U A142U]	≤ -4.2
GGAUCUUCUCGAUCUAACAAAAAAGACAAAUCUGCCACGAAGCUUGAGAACAUCUUCGGAUGCAGAGGCGGCAGCCUUCGCCGGCGCGAUACCGCCAACGUUCUCAACUAUGACACGCAAAACGCGUGCUCCGUUGAAUAGAGUUUAUCACC [A39G G50A G81C U82C G92C G140A U151C G152C]	≤ -4.2
GGAUCUUCUCGAUCUAACAAAAAAGACAAAUCUGCCACGAAGCUUGAGAGCAUCUUCGGAUGCAGAGGCGGCAGCCUUCGGUGGCGCGAUAGCGCCAACGUUCUCAAAUAUGACACGCGAAACGCGUGCUCCGUUGAAUGGAGUUUAUCAUG [A39G C108A A119G]	≤ -4.2
GGAUCUUCUCGAUCUAACAAAAAAGACAAAUCUGCCACGAAGCUUGAGAGCAUCUUCGGAUGCAGAGGCGGCAUCCUUCGGUGGCUCGAUAGCGCCAAAGUUCUCAACUAUGACACGCAAAACGCGUGCUCCAUUGAAUGGAGUUUAUCUUG [A39G G74U G86U C99A G133A A150U]	≤ -4.2
GGAUCUUCUCGAUCUAACAAAAAAGACAAAUCUGCCACGAAGCUUGAGAGCAUCUUCGCAUGCAGAGGCGGCAGCCUUCGGUGGCGCGUUAGCGCCAACGUUCUCAACUAGGACACGCAAAACGCGUGCUCCGUUGAAUGGAGUUUAUCAUG [A39G G59C A89U U111G]	≤ -4.2
GGAUCUUCUCGAUCUAACAAAAAAGACAAAUCUGCCACGAAGCUUGAGAGCAUCUUCGGAUGCAGAGGCGGCAGCCUUCGGUGGCGCGAUAGCGCCAAGGUUCUCAAUUAUGACACGCAAAACGCGUGCUCCGUUGAAUGGAGUUUAUCAUG [A39G C99G C108U]	≤ -4.2
